Results: PubChem BioAssay AID493208 (National Center for Advancing Translational Sciences (NCATS), 2011)
Screen size: about 44,000 compounds; about 340 (0.77%) were called active. Not shown: some 5% with an inconclusive outcome. The call rests on the fitted dose curve; in most records, active means well fitted inhibition curve with a large enough effect; inconclusive means small, poorly fitted or top-dose-only effect; inactive means flat fitted curve, though single readings scatter. The list shows a part of the results.

assay: Acumen qHTS Assay for Inhibitors of the mTORC1 Signaling Pathway in MEF (Tsc2-/-, p53-/-) Cells: Sytravon; details: phospho-rpS6 immunofluorescence/PI, 24 h; series mostly up to 38.3 µM; activity change, negative = inhibition: at the top concentration;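 further: plate controls were DMSO for no effect and rapamycin for full effect; nearly all actives have a fitted effect of over 50% in size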
Outline: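 Read-out: phospho-S6 Alexa-488 intensity over PI intensity per well, scored as % active cells using thresholds from rapamycin (7.5 nM) and DMSO controls. Tsc2-/-, p53-/- MEFs exposed to compound for 24 h; PI cell count recorded as viability.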

Activity change, negative = inhibition, inactive:
Cc1ccc(CNC(=O)Cn2cccc2C(=O)c2ccccc2C)cc1 -4.35%
Cc1ccc2nc(COc3cccc(NC(=O)COc4ccc(F)cc4)c3)cc(=O)n2c1 -12.6%
Cc1ccc(NC(=O)CCS(=O)(=O)c2ccc3c(c2)oc(=O)n3C)c(Br)c1 -1.37%
Cc1cc(C)cc(-n2c(SCC(=O)NC3CCCCC3)nc3c([nH]c4ccccc43)c2=O)c1 0.669%
COc1ccc(NC(=O)c2cc3c(C)nn(-c4ccccc4)c3s2)c(OC)c1 -7.46%
Cc1c(Cl)cccc1Nc1nn2c(=O)c3ccc(C(=O)N(C)Cc4ccccc4)cc3nc2s1 0.0523%
O=c1[nH]c(SCc2c(F)cccc2Cl)nc2c1CCCC2 -24.3%
COc1ccc(-c2nc(CSCC(=O)N3CCN(c4ccccc4)CC3)c(C)o2)cc1 -8.2%
CC(=O)c1cccc(NS(=O)(=O)c2cccc(S(=O)(=O)c3ccc(Br)cc3)c2)c1 3.24%
COCCNC(=O)c1[nH]c2cc(C)ccc2c1Sc1ccc(Cl)cc1 0.305%
O=C(COc1ccccc1)OCc1cc(=O)n2nc(-c3cccs3)sc2n1 5.78%
Cc1c(Cl)cccc1NC(=O)c1cc2nc(-c3ccc4c(c3)OCO4)cc(C(F)(F)F)n2n1 -4.95%
Cc1ccccc1NC(=O)c1ccc(N(Cc2ccccc2)S(C)(=O)=O)cc1 11.8%
COc1ccc(CNC(=O)c2cnc3ccc(C)cn3c2=O)cc1 0.605%
CCc1nn(CC(=O)NC(C)CC)c(=O)c2cc3occc3n12 (configuration not stated) -6.42%
CC(C)(C)OC(=O)N1CCC(c2c(C(=O)Nc3ccc4c(c3)OCO4)cnn2-c2ccccc2)CC1 -4.52%
O=C(NCc1ccc2c(c1)CCN2C(=O)c1ccncc1)c1ccccc1F -3.8%
COc1cccc(OCCn2c(-c3ccc(Br)cc3)nc3ccccc3c2=O)c1 -19.5%
COC(=O)c1ccccc1NC(=O)CCS(=O)(=O)c1nc(-c2ccc3c(c2)OCO3)cc(C(F)(F)F)n1 -14.6%
COC(=O)c1c(-c2cccs2)csc1NC(=O)c1ccc(C(C)C)cc1 0.939%
COc1ccccc1CNc1ncnc2c1nnn2C -1.15%
CCOCCCn1c(=N)c(S(=O)(=O)c2ccc(Cl)cc2)cc2c(=O)n3cccc(C)c3nc21 6.82%
O=C(NCc1ccc(F)cc1)c1ccc2oc(=O)n(Cc3ccccc3)c2c1 -23%
COc1ccccc1NC(=O)C(=O)NCC(c1cccnc1)N1CCc2ccccc2C1 (configuration not stated) 10.5%
COc1cccc(CNC(=O)Cn2c(=O)oc3cc(S(=O)(=O)N4CCCCCC4)ccc32)c1 1.36%
COC(=O)c1ccc(NC(=O)CCc2c(C)nn(-c3ccc(N4CCCCC4)nn3)c2C)cc1 -15.8%
CC(=O)Nc1nonc1-c1nnc(SCc2ccccc2)n1C -0.889%
COc1ccc(-n2nc(C(=O)Nc3cc(C)ccn3)c3c4ccccc4n(C)c3c2=O)cc1Cl 1.61%
CCOc1ccc(-c2cc(C(=O)NCCc3ccc(OC)c(OC)c3)[nH]n2)cc1 -6.26%
CN1CC(=O)N(CC(=O)Nc2ccc(OC(F)(F)F)cc2)c2ccccc2C1=O -1.66%
CCc1ccc(NC(=O)Cn2c(=O)c3cc(Cl)ccc3n3nncc23)cc1 -4.04%
COC(=O)c1cccc(CN2C(=O)SC(Nc3ccc(C)cc3)C2=O)c1 (configuration not stated) -17.1%
Cc1ccccc1CNC(=O)C(=O)NCC(c1cccs1)S(=O)(=O)c1cccs1 (configuration not stated) -4.29%
C=Cc1ccc(Cn2c(SCC(=O)N3CCN(c4ccc(F)cc4)CC3)nc3ccccc32)cc1 -5.72%
O=c1c2oc3ccccc3c2n(Cc2cccc(F)c2)c(=O)n1Cc1ccc2c(c1)OCO2 -2.8%
Cc1cccc(NC(=O)/C(C#N)=C/c2ccc(C)o2)c1 4.91%
CCOC(=O)c1ccc(NC(=O)CCc2nc3cccnc3n2Cc2cccs2)cc1 -15.2%
COc1cc(C2CC(=O)Nc3c2c(=O)n(C)c2ncnn32)cc(OC)c1OC (configuration not stated) -8.95%
CCC(=O)Nc1cccc(-c2nc3cc(C)ccc3o2)c1 0.891%
CC(=O)c1ccc(N2CCN(c3ccc4cc(S(=O)(=O)N5CCC(C)CC5)ccc4n3)CC2)cc1 7.15%
CSc1ccc(CCNC(=O)c2c(C)oc3ncn(C)c(=O)c23)cc1 -11%
Cc1cccc(Cn2c(Cc3ccccc3)nc3ccccc32)c1 1.76%
O=C(CN1c2ccccc2S(=O)(=O)c2ccccc21)Nc1cccc(C(F)(F)F)c1 0%
CCOC(=O)c1cnc(N2CCN(c3ccc(OC)cc3)CC2)c2ccccc12 2.07%
CCOC(=O)c1c(S(=O)(=O)NCC(=O)N(C)Cc2ccccc2)c(C)n(C)c1C 2.59%
CCN1CCN(c2ncnc3c2cnn3-c2cc(Cl)ccc2C)CC1 0.73%
CC1CCN(S(=O)(=O)c2csc(C(N)=O)c2)CC1 -2.99%
COc1ccccc1N1CCN(c2ncnc3c2c(-c2ccccc2)cn3-c2cccc(C)c2)CC1 2.43%
Cc1ccc(CSc2nc3cccnc3n2Cc2ccc(C(=O)NC3CCCCC3)cc2)cc1 -7.54%
CCCOc1ccc(C2c3c(oc4ccc(F)cc4c3=O)C(=O)N2CCc2ccc(OC)cc2)cc1 (configuration not stated) 0.488%
CC(=O)Nc1nonc1-c1nnc(SCC(=O)Nc2ccc(C)c(Cl)c2)n1C -8.37%
CCOc1ccc2c(c1)c(=O)c(S(=O)(=O)c1ccc(C)cc1)cn2Cc1ccccc1Cl -17.3%
Cc1ccc(CNC(=O)CN2C(=O)CC(c3ccc(C)c(C)c3)=Nc3ccccc32)cc1 -14.1%
CCCCOC(=O)c1ccc(Nc2ncnc3c2cnn3-c2cccc(C)c2)cc1 8.23%
Cc1ccc(-c2nnc3c4ccccc4c(C)nn23)cc1NC(=O)c1cccc(Br)c1 3.95%
Clc1cccc(-n2cc(-c3ccccc3)c3c(NC4CCCC4)ncnc32)c1 9.7%
COc1ccccc1NC(=O)CSc1nc2c(oc3ccccc32)c(=O)n1Cc1ccco1 -9.51%
O=C(NCc1cccc(Cl)c1)NCc1noc2ccccc12 -6.37%
COc1cccc(N2CCN(c3ncnc4c3c(-c3ccccc3)cn4-c3ccc(F)cc3)CC2)c1 15.1%
CCCCN(CC)C(=O)CCCn1c(=O)c2cccn2c2ccccc21 11.5%
COc1ccc(CNC(=O)CCNS(=O)(=O)c2ccc3c(c2)CCCC(=O)N3)cc1 -2.23%
Cc1ccc(Cn2c(CCNC(=O)C(C)C)nc3ccccc32)cc1 -4.89%
Cc1ccc(Cl)cc1N(C)C(=O)C1CCCN(c2ncnc3onc(-c4ccc(F)cc4)c23)C1 (configuration not stated) -0.165%
O=C(Cn1nc(-c2ccc(Cl)cc2)ccc1=O)NCCc1ccccc1 13%
CCOC(=O)CCc1c(C)nc2c(c(C)nn2-c2ccc(C)cc2)c1C -8.84%
O=C(C1CCC1)N1CCc2cc(S(=O)(=O)NCCc3ccccc3)ccc21 -0.828%
CCOc1ccc(C(=O)c2cn(CC(=O)Nc3ccc(F)c(F)c3)c3cc4c(cc3c2=O)OCCO4)cc1 -11.5%
CSc1ncc(Cl)c(C(=O)Nc2c(C(=O)c3ccc(C)c(F)c3)oc3ccccc23)n1 -8.47%
COc1cccc(NC(=O)CCc2nc(-c3cccs3)no2)c1 -2.62%
CCOc1ccc(C2C(=O)N(C3CCCCC3)CC(=O)N2CCC2=CCCCC2)cc1OC (configuration not stated) -23.8%
Cc1cccc(OC(=O)c2cc(-c3ccc4c(c3)OCCO4)on2)c1C 3.43%
COc1cccc(CNC(=O)C(Cc2ccccc2)NS(=O)(=O)c2ccc3c(c2)oc(=O)n3C)c1 (configuration not stated) -7.17%
Cc1cc2[nH]c(=O)c(=O)[nH]c2cc1S(=O)(=O)Nc1ccc(OC(F)(F)F)cc1 1.46%
COc1ccc(-c2noc(CSc3nc(N)cc(=O)[nH]3)n2)cc1 -1.55%
Cc1cccc(N2CCN(c3ccc(NC(=O)c4ccccc4)cc3C(=O)O)CC2C)c1 (configuration not stated) -0.614%
Cc1cccc(NC(=O)c2ccc3nc(CCc4ccccc4)oc3c2)c1C -0.486%
Cc1ncc(CO)c2c1Oc1nc(-c3ccc(F)cc3)nc(SCc3ccc(F)cc3Cl)c1C2 3.79%
O=C(NCc1ccc(F)cc1)c1ccc2c(c1)nc1n2CCCCC1 2.74%
O=C(Nc1ccccc1)c1ccc2c(O)c(S(=O)(=O)c3ccc(Cl)cc3)c(=O)[nH]c2c1 -5.74%
Cc1cc(Nc2cccc(Cl)c2)nc2ccc(NC(=O)c3cccc(N(C)C)c3)cc12 -7.15%
Cc1cc(O)c2c(C)c(CC(=O)N3CCCCC3)c(=O)oc2c1 -2.32%
CCCS(=O)(=O)N1CCC(N2CCN(Cc3ccc(F)cc3)C(=O)C2=O)CC1 0%
COc1ccc(-c2noc(-c3nnn(-c4ccc(C(C)C)cc4)c3C)n2)cc1OC -9.14%
CCOC(=O)c1ccc(NC(=O)CN2Cc3ccccc3C2=O)cc1 -1.24%
COc1ccccc1C(=O)Nc1onc2c1CCCC2 -1.86%
CCOc1ccccc1C1C(C(=O)Nc2ccccc2)=C(C)Nc2c(C(=O)Nc3ccc(F)cc3)cnn21 (configuration not stated) 1.52%
CCn1cc(C(=O)N2CCN(c3ccc(OC)cc3)CC2)c2cc(OC)c(OC)cc2c1=O 0.271%
O=S(=O)(c1ccc2nc(Nc3cccc(F)c3)ccc2c1)N1CCCC1 0.834%
Cc1ccc(NC(=O)Cn2cc(C(=O)c3ccco3)c3ccccc32)cc1 -7.58%
CCOc1ccc(-c2cccc(NS(=O)(=O)c3ccccc3C(F)(F)F)c2)nn1 4.81%
Cc1ccccc1Cn1c2ccccc2c2cnn(CC(=O)N3CCC(C)CC3)c(=O)c21 0.342%
CCc1ccc(NC(=O)N2CCC(N3CCN(Cc4ccc(C)cc4)C(=O)C3=O)CC2)cc1 -0.672%
COc1ccc(-c2cc3nccc(-c4cc(Cl)c(C)cc4O)n3n2)cc1 -19.5%
CCn1c(C(=O)N2CCCC(C(=O)N3CCN(c4ccccc4)CC3)C2)cc2sccc21 (configuration not stated) 1.04%
CCOc1ccccc1NC(=O)CSC1=Nc2ccccc2C2=NC(CC(=O)NCc3ccc4c(c3)OCO4)C(=O)N12 (configuration not stated) 4.34%
Cc1nn(CC(=O)NCCc2ccccc2)c(=O)c2c1sc1ccccc12 -3.78%
O=c1cc(-c2ccccc2)n2c(SCc3ccc(Br)cc3)nnc2[nH]1 -11%
